pIC50: −log10 of the molar value. The IC50 comes from the fitted curve, where viability falls to half of the control; a fit beyond the top or the lowest dose is shown as a bound at that dose. AUC, from the same fit, is the share of area under the viability curve across the 256-fold dose range; it is 1 without any effect and falls as sensitivity rises.

Compound in this assay: COc1ccc(C2=N[C@@H](c3ccc(Cl)cc3)[C@@H](c3ccc(Cl)cc3)N2C(=O)N2CCNC(=O)C2)c(OC(C)C)c1 [Nutlin-3a]
Description: Viability of human cancer cell lines after 72 h of drug (GDSC screen). As to the method:
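Human cancer cell lines in 384-well plates, medium with 10% serum, drug for 72 h over a 256-fold dose range (nine 2-fold or five 4-fold steps up to the top dose). Adherent lines were fixed and stained with the nucleic acid dye Syto60, suspension lines read with resazurin; signal relative to control wells, capped at 0 and 100%. One two-parameter sigmoid per drug and line, fitted in a mixed model over all curves with the slope shared within a line.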

With SF126 (glioma, adherent, top dose 8 µM), the AUC worked out at 0.983 and the pIC50 is less than 5.10.
The matching figures for SF268 (glioma, adherent, top dose 8 µM): 0.984 and less than 5.10.
SF295 (glioma, adherent, top dose 8 µM): the AUC was found to be 0.945 and the pIC50 was less than 5.10.
The matching figures for SF539 (glioma, adherent, top dose 8 µM): 0.983 and less than 5.10.
For the cell line “SH-4 (melanoma, adherent, top dose 8 µM)”, the AUC was determined as 0.807 and the negative-log IC50 (pIC50) is 5.14.
The matching figures for “SHP-77 (small cell lung carcinoma, semi-adherent, top dose 8 µM)”: 0.842 and 5.32.
As for “SIMA (neuroblastoma, adherent, top dose 8 µM)”, the AUC is 0.889 and the negative-log IC50 (pIC50) is less than 5.10.
In the case of SISO (cervix, adherent, top dose 8 µM), the AUC was determined as 0.988 and the pIC50 is less than 5.10.
The like results for “SJRH30 (rhabdomyosarcoma, adherent, top dose 8 µM)” were, in that order, 0.975 and less than 5.10.
On to “SK-CO-1 (large intestine, adherent, top dose 8 µM)”, for which the AUC came to 0.876 and the pIC50 is 5.14.
The matching figures for “SK-ES-1 (Ewing sarcoma, semi-adherent, top dose 8 µM)”: 0.963 and less than 5.10.
Consider “SK-GT-2 (stomach, adherent, top dose 8 µM)”, for which the AUC came to 0.94 and the pIC50 was less than 5.10.
“SK-GT-4 (oesophagus, adherent, top dose 8 µM)”: the AUC is 0.973 and the pIC50 is less than 5.10.
With “SK-HEP-1 (liver, adherent, top dose 8 µM)”, the AUC is 0.796 and the pIC50 is 5.46.
The matching figures for “SK-LMS-1 (soft tissue, adherent, top dose 8 µM)”: 0.978 and less than 5.10.
The like results for “SK-LU-1 (lung adenocarcinoma, adherent, top dose 8 µM)” were, in that order, 0.902 and less than 5.10.
In the case of “SK-MEL-1 (melanoma, suspension, top dose 8 µM)”, the AUC was determined as 0.978 and the pIC50 is less than 5.10.
“SK-MEL-2 (melanoma, adherent, top dose 8 µM)”: the AUC was 0.985 and the pIC50 was less than 5.10.
The matching figures for “SK-MEL-3 (melanoma, adherent, top dose 8 µM)”: 0.983 and less than 5.10.
The matching figures for “SK-MEL-5 (melanoma, adherent, top dose 8 µM)”: 0.833 and 5.16.
The matching figures for “SK-MEL-28 (melanoma, adherent, top dose 4 µM)”: 0.988 and less than 5.40.
“SK-MEL-30 (melanoma, adherent, top dose 4 µM)”: the AUC was determined as 0.971 and the pIC50 was less than 5.40.
For “SK-MEL-31 (melanoma, adherent, top dose 8 µM)”, the AUC was 0.939 and the negative logarithm of the IC50 (pIC50) is less than 5.10.
The like results for “SK-MES-1 (lung squamous cell carcinoma, adherent, top dose 8 µM)” were, in that order, 0.963 and less than 5.10.
The matching figures for “SK-MG-1 (glioma, adherent, top dose 8 µM)”: 0.986 and less than 5.10.
Regarding “SK-MM-2 (myeloma, suspension, top dose 8 µM)”, the AUC worked out at 0.987 and the pIC50 is less than 5.10.
In the case of “SK-N-AS (neuroblastoma, adherent, top dose 8 µM)”, the AUC was determined as 0.984 and the pIC50 was less than 5.10.
The matching figures for “SK-N-FI (neuroblastoma, adherent, top dose 8 µM)”: 0.983 and less than 5.10.
Consider “SK-N-SH (neuroblastoma, adherent, top dose 8 µM)”, for which the AUC is 0.706 and the pIC50 is 5.72.
The matching figures for “SK-OV-3 (ovary, adherent, top dose 8 µM)”: 0.979 and less than 5.10.
Take “SK-PN-DW (Ewing sarcoma, adherent, top dose 8 µM)”: the AUC was 0.914 and the negative-log IC50 (pIC50) was less than 5.10.
“SK-UT-1 (soft tissue, adherent, top dose 4 µM)”: the AUC is 0.989 and the negative-log IC50 (pIC50) is less than 5.40.
Consider “SKG-IIIa (cervix, adherent, top dose 8 µM)”, for which the AUC was 0.983 and the pIC50 is less than 5.10.
In the case of “SKM-1 (haematopoietic neoplasm, suspension, top dose 8 µM)”, the AUC turned out to be 0.848 and the pIC50 is 5.16.
The like results for SKN (uterus, adherent, top dose 8 µM) were, in that order, 0.948 and less than 5.10.
With “SKN-3 (head and neck, adherent, top dose 8 µM)”, the AUC was determined as 0.965 and the pIC50 was less than 5.10.
The matching figures for “SLVL (B-cell lymphoma, suspension, top dose 8 µM)”: 0.918 and less than 5.10.
On to SNB75 (glioma, adherent, top dose 8 µM), for which the AUC is 0.979 and the negative-log IC50 (pIC50) was less than 5.10.
The like results for “SNG-M (endometrium, adherent, top dose 8 µM)” were, in that order, 0.788 and 5.46.
The like results for “SNU-61 (large intestine, adherent, top dose 8 µM)” were, in that order, 0.985 and less than 5.10.
As to “SNU-81 (large intestine, adherent, top dose 8 µM)”, the AUC turned out to be 0.967 and the pIC50 was less than 5.10.
The matching figures for “SNU-182 (liver, adherent, top dose 8 µM)”: 0.985 and less than 5.10.
The matching figures for “SNU-387 (liver, adherent, top dose 8 µM)”: 0.984 and less than 5.10.
The like results for “SNU-407 (large intestine, adherent, top dose 8 µM)” were, in that order, 0.854 and less than 5.10.
On to “SNU-423 (liver, adherent, top dose 8 µM)”, for which the AUC came out at 0.983 and the pIC50 is less than 5.10.
The like results for “SNU-449 (liver, adherent, top dose 8 µM)” were, in that order, 0.985 and less than 5.10.
With “SNU-C1 (large intestine, suspension, top dose 8 µM)”, the AUC was determined as 0.934 and the pIC50 is less than 5.10.
With “SNU-C2B (large intestine, adherent, top dose 8 µM)”, the AUC turned out to be 0.928 and the pIC50 is less than 5.10.
The like results for “SNU-C5 (large intestine, adherent, top dose 8 µM)” were, in that order, 0.986 and less than 5.10.
Take “SR (lymphoid neoplasm, suspension, top dose 8 µM)”: the AUC amounted to 0.669 and the pIC50 was 5.85.
Take “ST486 (Burkitt lymphoma, suspension, top dose 8 µM)”: the AUC was 0.982 and the negative-log IC50 (pIC50) was less than 5.10.
Consider “STS-0421 (soft tissue, adherent, top dose 8 µM)”, for which the AUC came to 0.812 and the pIC50 is 5.29.
For the cell line “SU8686 (pancreas, adherent, top dose 4 µM)”, the AUC worked out at 0.983 and the negative logarithm of the IC50 (pIC50) was less than 5.40.
The like results for “SU-DHL-4 (B-cell lymphoma, suspension, top dose 8 µM)” were, in that order, 0.997 and less than 5.10.
The matching figures for “SU-DHL-5 (B-cell lymphoma, suspension, top dose 8 µM)”: 0.795 and 5.56.
The matching figures for “SU-DHL-6 (B-cell lymphoma, suspension, top dose 8 µM)”: 0.99 and less than 5.10.
Take “SU-DHL-8 (B-cell lymphoma, suspension, top dose 8 µM)”: the AUC worked out at 0.988 and the pIC50 is less than 5.10.
In the case of “SU-DHL-10 (B-cell lymphoma, suspension, top dose 8 µM)”, the AUC is 0.998 and the pIC50 was less than 5.10.
The matching figures for “SU-DHL-16 (B-cell lymphoma, suspension, top dose 8 µM)”: 0.991 and less than 5.10.
The like results for “SUIT-2 (pancreas, adherent, top dose 4 µM)” were, in that order, 0.932 and less than 5.40.
The like results for “SUP-B8 (B-cell leukaemia, suspension, top dose 8 µM)” were, in that order, 0.982 and less than 5.10.
With “SUP-B15 (lymphoblastic leukaemia, suspension, top dose 8 µM)”, the AUC worked out at 0.639 and the pIC50 was 5.92.
The matching figures for “SUP-HD1 (Hodgkin lymphoma, suspension, top dose 8 µM)”: 0.772 and 5.53.
As for “SUP-M2 (anaplastic large cell lymphoma, suspension, top dose 8 µM)”, the AUC stood at 0.795 and the pIC50 was 5.56.
For “SUP-T1 (T-cell lymphoblastic leukaemia, suspension, top dose 8 µM)”, the AUC came to 0.977 and the pIC50 is less than 5.10.
For the cell line “SW13 (adrenal gland, adherent, top dose 4 µM)”, the AUC came to 0.987 and the pIC50 was less than 5.40.
The like results for “SW48 (large intestine, adherent, top dose 8 µM)” were, in that order, 0.92 and less than 5.10.

Values taken from the supplement of paper PMC4967469.
